In the supplement of paper PMC11417369:
± gives the standard deviation of the averaged measurements. The list shows a part of the results.

tested on: PfAP2-G AP2 domain (GST-tagged); assay: gcPBM binding intensity (ln(normalized median fluorescence intensity)); higher = stronger DNA binding
In short: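 For binding intensity, the highest Masliner-normalised natural-log median intensity across replicate spots of either probe orientation was taken. Protein bound to the array was stained with Alexa488 anti-GST antibody and scanned at 488 nm. The protein, GST-tagged P. falciparum DNA-binding domains from E. coli at about 25 μg on average, had been applied for 1 h to an Agilent 4 × 180k array of primer-extended double-stranded 36-bp intergenic genomic probes and negative controls.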

Sequence	gcPBM binding intensity (ln)
AATATATAATATATATGTACTTATATATAAAAGATA [XGTACX_site7635]	11.3 ± 0.81
TTGTGTAAAGGTATTATTGTATTATTCAAAATAAAA [XGTACX_negctrl_site167]	10.1 ± 0.4
TTAAAGCACCCATGCACACACACAAAGGAAAAGAAA [CACACA_site233]	10.3 ± 0.46
CATATATATTTGTTCACACACACACTAATAAAAAAA [CACACA_site8787]	10.4 ± 0.3
TGGAGGAACCTCATATGTACGTATAAATATATATTT [XGTACX_site5603]	11.6 ± 1.1
ACAATAAACATATATACACACACAAAAAAAAAAACA [CACACA_site8033]	10.1 ± 0.47
ATCAAATAGAGACACACACACCTAAACATAAAAGAA [CACACA_site7321]	10.1 ± 0.2
TGATAAATTAAAAATTGTACTATTATAATAATATAT [XGTACX_site6615]	10.8 ± 0.61
TTTATATAAATTTATTCACACAACTAATTTTTTAAA [CACACA_site4848]	9.8 ± 0.12
GGGGGAATTTACATGGGTACACATGTATTAAAAAAT [XGTACX_site4130]	11.6 ± 1
TTTTTCTTACATGAGTGTACACACTTTTTTTCAGAA [XGTACX_site138]	11.7 ± 0.83
CATCTTATATAATCATGTACATATAGAGACTTCTTT [XGTACX_site7685]	11.1 ± 0.63
TTATATGTATGGAGGTTTTTGTATATAGATATATAG [CACACA_negctrl_site177]	9.81 ± 0.028
ATGTCATATAATAGTACACACATGAAAATATAAATA [CACACA_site3215]	11.4 ± 0.95
ATAAAAAAAGGACACACACACATATATTTATTTATA [CACACA_site7438]	11.4 ± 0.97
AAAAAAAAAAAAAATAGTACAATACCCAAATATAAC [XGTACX_site6684]	11.3 ± 0.74
AATATAAACAAACACACACACATATATATATATATT [CACACA_site5592]	9.97 ± 0.085
ACGCTACATAAATACGTGCACATCTTTTTGTGTATA [GTGCAC_site9675]	10.5 ± 0.29
ACTATTAAAATGAATACACACAAATATAAAAATATA [CACACA_site4145]	10.06 ± 0.071
GGTAGGGATTATACCACACACACATACACATAAATA [CACACA_site3179]	10.4 ± 0.4
ATAGTCTTAATGACTACACACCTAACTATGCATGCA [CACACA_site5084]	9.88
ATACAGTTGCATATGGTGCACGAATAATACACCTAT	10.4 ± 0.2

Sequence	gcPBM binding intensity (ln)
TGGTAGTATATCATAGAAATCATTGTATAACAAATA [XGTACX_negctrl_site569]	9.915 ± 0.035
AAAAAAAAAAAAAAAACACACAAATCATAAATAAAT [CACACA_site478]	10.3 ± 0.42
AAATAATATTTTTTTTTTTTTTTTTTTTTATGTTAT [CACACA_negctrl_site809]	9.45 ± 0.028
TGTATTATATATACACAAATATTTATGTGTGTGTTT [XGTACX_negctrl_site475]	10.1 ± 0.11
TTTTTTTGTATTTGTTTATTTAATGATAAAATTAAA [CACACA_negctrl_site225]	10 ± 0.3
ATTTTTCTTTTTAATACACACAAAAGTGATACAAAC [CACACA_site3923]	10.4 ± 0.35
ACATATATATATTCTACACACTTATAATATAATACA [CACACA_site2461]	10.2 ± 0.16
TTGTTCTATTTAAGTAGTACATACACACACATATAC [XGTACX_site8484]	11.5 ± 0.71
ACTAAACTAATATGTACACACATATAACATTAATTT [CACACA_site7128]	11.4 ± 0.93
TTTCGTTCATAAAAAAGTACATATGAGCAAAAGGTA [XGTACX_site8936]	11.5 ± 1.1
TATATATATATATATAGTACATATTTATATATGAAA [XGTACX_site8488]	10.8 ± 0.57
GAATTAAAATAATACGTACACACATGTATAATACAT [CACACA_site1004]	11.7 ± 1.2
CACAATACTTTCATCACACATATATATATATATATA [CACACA_site4677]	10.2 ± 0.26
ACCCATTGCTCACGTGCACACATAGAAAAATAATTC [CACACA_site4389]	10.8 ± 0.58
ATAACATAAGGAAATACACACATATATAAGTATATA [CACACA_site778]	10.02 ± 0.021
TATGTATATATTTACGCATGCTACTCTATTTTGAGA [TGCATGCA_site990]	9.76 ± 0.26
AAAAAATTATACCTTTGTACATAAATAAAATATTAT [XGTACX_site418]	10.9 ± 0.65
AAGATTACTTATATATGTACACATAATACAAATGTC [XGTACX_site520]	11.4 ± 0.83
TCTGTTAATATTTATACACACATATATATATATATA [CACACA_site1139]	10.2 ± 0.5
AATAAAAGAAGACAGAGTACACAGGTTGTATTTTCC [XGTACX_site7208]	11.4 ± 0.84
TGTGCATAAATTTATGCACACATAAAAAAAAAAAAA [CACACA_site8954]	10.2 ± 0.48
ATAATATATACTATATGTACATATCTTTTCCTCTTT [XGTACX_site5553]	10.9 ± 0.49

Sequence	gcPBM binding intensity (ln)
TTTTTCATAAAAAAATAAAAAAAATTAACATAGAAA [XGTACX_negctrl_site11]	9.95 ± 0.26
TTTTAGAGTGGTATATATTAATTTTTAATAAAAAAA [CACACA_negctrl_site1652]	10.1 ± 0.23
TATGTATTTTTTAAGTGTACCTATATATATATATAT [XGTACX_site7934]	11.2 ± 0.86
TGGGAAGGGTGGGAAACTTTATCAAAAACTTATTAC [GTGCAC_negctrl_site16]	10.3 ± 0.23
TATAATAATAATTATTGTACGATTAGGTTAATTCAT [XGTACX_site1984]	11.1 ± 0.7
AGAAAGGTGGTATTAAAAGAATAACCTATGAATAAA [GTGCAC_negctrl_site325]	10.3 ± 0.38
ATAGTATCTGGTAGCTGTACGAGTCGTAGAGTGTAG [XGTACX_site2030]	11.3 ± 0.83
TATATTGAAAATAAAACATGCAATCACTCATACATA [TGCATGCA_site248]	9.75 ± 0.071
CAACAATTTCGTCATACACACATTCAGAATCTATAT [CACACA_site7171]	10.2
ATGTACCTATTTCATACACACACACCCACAAACAAA [CACACA_site8232]	11.4 ± 1
TTTTTTTAACGGTGTGCACACAATATACAGAAAAAA [CACACA_site1415]	10.8 ± 0.35
TATATACATTTATATACACACCTATATTTATTTATA [CACACA_site7014]	9.95 ± 0.057
ATTATATATATTTATGCACACAAAATATATTATATA [CACACA_site9244]	10.1 ± 0.3
AAAATATAATATATTACACACATATATTTTATAAGT [CACACA_site668]	9.79 ± 0.12
TATACATTTATGTACACACACATATAGGTATATTTA [CACACA_site7408]	11.5 ± 0.8
TATGTTGGTTCTTTTAGTACATAATTACTAAATGTA [XGTACX_site8616]	11.1 ± 0.79
AAAACATACATATATACACACATATATATATATATA [CACACA_site1852]	10 ± 0.28
CAAACTACAAAATTTCGTACGCATATATTTCAAGTA [XGTACX_site5154]	11.1 ± 0.7
TTTAAACGTTATATAGTGCATGTCATATTTTATTAT	9.85 ± 0.014
TACGTAATAATATGCACACAAATAAACTTTATAAAT [CACACA_site3501]	10.2 ± 0.26
CAAAAAAGTAAAACGTGTACATATATACATAAAAAT [XGTACX_site5639]	11.5 ± 0.81
CTTTTTTATATCTCTACACACATTTATAACAATTTG [CACACA_site1398]	10.14 ± 0.057

Sequence	gcPBM binding intensity (ln)
GGCAATGATTTTAGGTGTACTTAAAAATCAAATTAA [XGTACX_site8587]	11.5 ± 0.95
ATTCTAATCATATACACACCCATATATATATATATA [CACACA_site1774]	10.1 ± 0.15
TGCACAAAATTATGCACACACCTAAAATTAATTTTT [CACACA_site5596]	10.2 ± 0.21
TAATTTCTTATGTGCTATCTTATATAGAATTAATTT [CACACA_negctrl_site1726]	10 ± 0.11
TATAAAAAATAAAATACACACACATATATATATATA [CACACA_site8365]	9.95 ± 0.3
ATGGCTAAAAGTTGCACACACACAAAAAAAAAAAAA [CACACA_site3289]	10.2 ± 0.55
AGCAGTCAGCAGGACAGTACACAGTAGCCAGGAAAT [XGTACX_site4877]	11.1 ± 0.67
AAAAAAAAAATTTAGGTGCATACAAATAAATTATAT [GTGCAC_site9521]	9.725 ± 0.007
GGCATACACGGACACACACACACACCGACATATATA [CACACA_site4493]	11.3 ± 0.88
ATTATATAACAAAATAGTACATATATTTATTACATC [XGTACX_site336]	11.1 ± 0.76
TATATATTAATATGCACACACAAGAAGTAATTATAA [CACACA_site3193]	10.3 ± 0.13
GATATCAAAAAGATGGGTACATATATTTAAGTTCAT [XGTACX_site3822]	11.3 ± 0.76
TATATTATTAATTAGGGTACAAAAAAAAAATTTTTT [XGTACX_site7762]	11.2 ± 0.73
ATATATATATATATATATATAATTTTTTTTGTTTTT [TGCATGCA_negctrl_site453]	10 ± 0.81
TAGGAAAAGAAAAGCACACACATAAATAGATATATA [CACACA_site6382]	9.84 ± 0.014
TTAAATAGAAATAAGACTAACAATGAACCAAAAAAA [CACACA_negctrl_site991]	10.2 ± 0.16
TTTTGAAAAAGTTGCACACAAAATTTAAAAAAAAAA [CACACA_site1632]	10.4 ± 0.44
TTTAAAAATAAAAGTACACACATAAACATATTGCAC [CACACA_site6784]	11.6 ± 0.97
TGCAACAAAATAAACACACACACACTAACACAAAAA [CACACA_site7567]	10.2 ± 0.18
ATAAGCAATAAAAAAACATGCATATTATTATCAACA [TGCATGCA_site1027]	9.89 ± 0.32
TTTTCATTTGAAAGTCGTACAAGTTCGAAAAAAGGA [XGTACX_site6840]	11.6 ± 1.2
CTTAAAAAAACCTTAACACACATAAACTATAATTTA [CACACA_site3055]	9.975 ± 0.021
